Assay results as given in PubChem BioAssay AID1508624 (National Center for Advancing Translational Sciences (NCATS), 2021).
Hit rate of the full screen: of about 48,000 compounds, about 120 (0.25%) were called active. Not shown: some 4% with an inconclusive outcome. Calls follow the shape of the dose curve; as a rule, active = well fitted activation curve with a large enough effect; inconclusive = small, poorly fitted or top-dose-only effect, or another doubt; inactive = no such curve, though single readings can be large or run the other way. This is one part of the list.

Assay: Primary qHTS for Identification of Small Molecule Activators of Huntingtin-Antisense Promoter Activity; also: nearly all actives have a fitted effect of over 55% in size
Conditions: HEK293 HTT-AS promoter firefly luciferase reporter, 24 h; series mostly up to 57.5 µM; activity change, positive = activation: at the top concentration
Procedure, shortened: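 Luminescence was read after Dual-Glo reagent and a 10 min room-temperature incubation. Values were normalized to vehicle (0% activity) and zero RLU (-100% activity). Reporter HEK293 cells had been exposed to compounds (up to 57.5 uM final) for 24 h.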

Row | Structure (SMILES) | activity change, positive = activation
1 | CCc1cccc(N2C(=O)CS(=O)(=O)C23C(=O)N(Cc2ccccc2)c2ccc(C)cc23)c1 (stereo not given) | inactive: -22.6%
2 | CSc1ccc(CNC(=O)c2sc3ncnc(N(C)C4CCCCC4)c3c2C)cc1 | inactive: -23.2%
3 | Cc1cccc(C(=O)N2c3ncnn3C3(CCCCC3)[C@@H]3CCCC[C@@H]32)c1 | inactive: -31.8%
4 | Cc1cccc(Nc2cc(C)nc(-n3nc(C)cc3C)n2)c1 | inactive: -21.1%
5 | CCOc1ccc(CN2C(=O)C(=O)c3cccc(C)c32)cc1OC | inactive: -24.4%
6 | Cc1c(C(=O)Nc2ccc(F)cc2)oc2ccc(S(=O)(=O)N3CCCCCC3)cc12 | inactive: -29%
7 | CCOC(=O)c1cccc(NS(=O)(=O)c2ccc(-c3coc(C)n3)cc2)c1 | inactive: -12.4%
8 | Cc1cc(C)c(NC(=O)C2CCN(C(=O)N3CCOc4ccccc43)CC2)c(C)c1 | inactive: -24.2%
9 | COc1ccc(-c2cc(C(F)(F)F)n3ncc(-c4ccccc4)c3n2)cc1 | inactive: -11.4%
10 | COC(=O)c1ccc2c(=O)n(CCc3ccc(S(N)(=O)=O)cc3)c(SCC(=O)C(C)(C)C)nc2c1 | inactive: -1.34%
11 | COc1ccccc1CNc1nc2ccccc2c2nc(-c3cccc(C)c3)nn12 | inactive: 23.8%
12 | Cc1cccc(CCNC(=O)c2cc3c(=O)[nH]c4ccc(C)cc4c3s2)c1 | inactive: -22.8%
13 | CCn1cc(C(=O)NCCN(CC(C)C)CC(C)C)c(=O)c2cc(S(=O)(=O)N(C)C3CCCCC3)ccc21 | inactive: -1.95%
14 | COc1cc([N+](=O)[O-])ccc1NC(=O)N1CCC2(CC1)Nc1ccccc1-n1cccc12 | inactive: -14.5%
15 | COc1ccc2cc3cc(C(=O)N4CCN(c5cccc(C(F)(F)F)c5)CC4)sc3nc2c1 | inactive: -14.8%
16 | COc1ccc(-c2nc3sc(CCNC(=O)C(=O)Nc4cc(F)ccc4F)c(C)n3n2)cc1 | inactive: 3.06%
17 | CCOCCCn1c(SCC(=O)NCc2ccccc2)nc2c(sc3ccccc32)c1=O | inactive: -2.09%
18 | COc1ccc(NC(=O)c2nnn(CC(=O)Nc3cccc(C)c3C)c2N)c(OC)c1 | inactive: -20.9%
19 | CCCCOc1ccccc1Cn1c(=O)sc2ccccc21 | inactive: -10.4%
20 | Cc1cccc(NC(=O)CN(C)S(=O)(=O)c2ccc3c(c2)CCC(=O)N3)c1C | inactive: -9.46%
21 | CCOc1ccc(C(=O)Nc2cccc(NC(=O)c3ccc(Cl)cc3Cl)c2)cc1 | inactive: -1.37%
22 | O=C1NCC2(CCN(CCc3ccccc3)CC2)O1 | inactive: -5.11%
23 | Nc1nc(NCCNc2ncc(-n3ccnc3)c(-c3ccc(Cl)cc3Cl)n2)ccc1[N+](=O)[O-] | inactive: -29%

Row | Structure (SMILES) | activity change, positive = activation
24 | Cn1c(SCC(=O)Nc2nc3ccccc3s2)ncc(C(=O)Nc2ccc(Cl)cc2)c1=O | inactive: 13.8%
25 | CCOCCCNC(=O)c1cn(CC(C)C)c(=O)c2c1c1ccccc1n2C | inactive: -4.69%
26 | COc1cccc(NC(=O)Cn2nnc(C(=O)NCc3ccc4c(c3)OCO4)c2N)c1 | inactive: -1.25%
27 | CSc1ncc(Cl)c(C(=O)N(C)c2ccccc2)n1 | inactive: -22.9%
28 | CCN1CCN(c2ncc3c(n2)CCN(Cc2cccc(F)c2F)C3)CC1 | inactive: -9.34%
29 | COC(=O)c1ccccc1NC(=O)c1nn(C)c2c1COc1ccccc1-2 | inactive: -4.74%
30 | CN(C)c1cc(NC(=O)CNC(C)(C)C)c(O)c2c1C[C@@H]1C[C@H]3[C@H](N(C)C)C(=O)C(C(N)=O)=C(O)[C@@]3(O)C(=O)C1=C2O | inactive: -11.2%
31 | Cc1cc(C)c(NC(=O)CSc2nc(=O)n(Cc3cccnc3)c3c2CCC3)c(C)c1 | inactive: -18.7%
32 | COc1ccccc1Nc1ncc2c(n1)CCN(Cc1cc(F)cc(F)c1)C2 | inactive: -15%
33 | Cc1ccc(-c2c3c(=O)n(C)c(=O)n(C)c3c3cnc4ccccc4n23)cc1 | inactive: -10.4%
34 | Cc1ccc(S(=O)(=O)CC(=O)Nc2nc3c(C)cccc3s2)cc1 | inactive: -8.01%
35 | CSc1ccc(/C=C/c2nc3ccccc3n2S(=O)(=O)c2ccc(Br)cc2)cc1 | inactive: -68.6%
36 | CCOC(=O)c1c(C)[nH]c(C)c1S(=O)(=O)N1CCCC(C(=O)Nc2cccc(CC)c2)C1 (stereo not given) | inactive: -3.8%
37 | CCOc1ccc(NC(=O)CCc2c(C)nc3nc(-c4cc(OC)cc(OC)c4)nn3c2C)cc1 | inactive: -15.2%
38 | COc1cccc(NC(=O)/C(C#N)=C/c2c(C)n(Cc3ccccc3)c3ccccc23)c1 | inactive: -18.1%
39 | CC(=O)N1CCc2cc(Br)cc(S(=O)(=O)NCCc3cccc(C)c3)c21 | inactive: -9.66%
40 | O=C(Nc1ccc(Cl)c(C(F)(F)F)c1)c1nc2ccccc2nc1N1CCCCC1 | inactive: -40.6%
41 | COc1ccc(-c2[nH]c3c(c2-c2c(-n4cccc4)n(C)c(=O)[nH]c2=O)c(=O)[nH]c(=O)n3C)cc1F | inactive: -11.6%
42 | COc1ccc(-n2nnc(-c3nsc(NC(=O)c4cccc(C)c4)n3)c2C)cc1OC | inactive: -25.7%
43 | COc1ccccc1Nc1nc(N)nc(N)c1S(=O)(=O)c1ccccc1 | inactive: -11%
44 | CC1=C(c2ccc(C)c(C)c2)S(=O)(=O)N=C1N1CCC(C(=O)NCc2ccc(N(C)C)cc2)CC1 | inactive: -13%
45 | Nc1c(-c2nc(-c3ccccc3Cl)no2)nnn1-c1ccccc1C(F)(F)F | inactive: 23.3%
46 | COc1ccccc1NC(=O)N1CCN(c2nnc(C)c3c(C)n(-c4ccccc4)nc23)CC1 | inactive: -11.2%

Row | Structure (SMILES) | activity change, positive = activation
47 | O=c1c2oc3ccccc3c2n(Cc2ccccc2F)c(=O)n1Cc1ccc2c(c1)OCO2 | inactive: -13.4%
48 | CCN(CC)S(=O)(=O)c1ccc(NC(=O)c2c(C)oc3ncnc(N4CCCCC4)c23)cc1 | inactive: -18.1%
49 | CCN(CC)CCN(C(=O)c1ccco1)c1nc2ccc(F)cc2s1 | inactive: 2.05%
50 | Cc1ccc(-c2nnc(SCC(=O)NCc3ccccc3)o2)cc1 | inactive: -13.8%
51 | CCCC(=O)N1c2ccccc2-c2nnc(SC)nc2OC1c1sccc1C (stereo not given) | inactive: 9.9% [at 11.5 µM, percent change from vehicle, -100% = no light]
52 | Cc1ccc(C)c(N2CCN(S(=O)(=O)c3cc(C(=O)Nc4ccccc4C(F)(F)F)ccc3F)CC2)c1 | inactive: -15%
53 | CC(Oc1ccccc1)C(=O)Nc1c(C(=O)Nc2cccc(F)c2)oc2ccccc12 (stereo not given) | inactive: -1.77%
54 | CCc1ccc(S(=O)(=O)Nc2cc3c(cc2C)n(C)c(=O)c(=O)n3C)cc1 | inactive: -33.8%
55 | CCOC(=O)c1c(NC(=O)COc2ccc(Cl)cc2Cl)sc2c1CCCCC2 | inactive: 1.61%
56 | CN(C)c1ccc(CNC(=O)Cn2c(-c3cccs3)cc3cc(Cl)ccc32)cc1 | inactive: -23%
57 | CCOC(=O)c1[nH]c(C)c(CCC(=O)N2CCN(c3cc(C)ccc3C)CC2)c1C | inactive: -39.3%
58 | Cc1ccc2oc(=O)c3cnn(CC(=O)N4CCN(c5cccc(Cl)c5)CC4)c3c2c1 | inactive: -2.53%
59 | Cc1ccc(NC(=O)c2nc(S(=O)(=O)Cc3ccc(F)cc3)ncc2Cl)cc1C | inactive: -69.2%
60 | CCOc1ccc(OCC)c(NC(=O)CN(C)S(=O)(=O)c2ccc3[nH]c(=O)oc3c2)c1 | inactive: -13.9%
61 | Cc1cccc(C(=O)Nc2ccc3nc(SCC(=O)N4CCCC4)sc3c2)c1 | inactive: -16.8%
62 | O=C(CSc1nc(=O)[nH]c2c1CCC2)Nc1cc(C(F)(F)F)ccc1Cl | inactive: -33.3%
63 | Cc1cc(C(=O)NCCc2ccc(Cl)cc2)c2c(C)nn(-c3ccccc3)c2n1 | inactive: 1.89%
64 | COc1cc(CNC(=O)c2ccc(NC(=O)N3CCCCc4ccccc43)cc2)cc(OC)c1OC | inactive: -12%
65 | CC(=O)[C@@]1(O)CC[C@H]2[C@@H]3CCC4=CC(=O)CC[C@]4(C)[C@H]3CC[C@@]21C | inactive: -11.9%
66 | CC(=O)c1cccc(NC(=O)CCn2nc(C)c(S(=O)(=O)N3CCCCC3)c2C)c1 | inactive: -12.1%
67 | O=C(NCCc1ccc(Cl)cc1)c1cnc2sc(N3CCCC3)nn2c1=O | inactive: -19.3%
68 | CCc1ccccc1NC(=O)C1CCCN(S(=O)(=O)c2ccc3[nH]c(=O)ccc3c2)C1 (stereo not given) | inactive: -21.8%
69 | Cc1ccc(OCC(=O)NCC(=O)OCc2cc(=O)n3nc(CC(C)C)sc3n2)cc1 | inactive: 2.22%

Row | Structure (SMILES) | activity change, positive = activation
70 | O=C(c1cccs1)N1CCCc2cc(NS(=O)(=O)c3cc(F)ccc3F)ccc21 | inactive: -27.9%
71 | COc1ccc(OC)c(CCNC(=O)CCCn2c(=O)c3cccn3c3cccnc32)c1 | inactive: 1.09%
72 | CCOc1ccc(CNS(=O)(=O)c2ccc3c(c2)CC(C)N3C(C)=O)cc1OC (stereo not given) | inactive: -29.3%
73 | O=C(NCc1ccccc1)c1ccc(CS(=O)(=O)c2c(Cl)cccc2Cl)o1 | inactive: -16%
74 | COc1ccc(N2CCN(C(=O)CSc3nc(-c4ccccc4)no3)CC2)cc1 | inactive: 20.6%
75 | Cc1ccc(NC(=O)Cn2nc(C)c3nn(-c4ccc(Cl)cc4)c(C)c3c2=O)cc1F | inactive: -31.1%
76 | Cc1c(CN2CCN(C(=O)C(C)C)CC2)sc2c(N3CCOCC3)nc(-c3cnc(N)nc3)nc12 | inactive: -36.2%
77 | COc1ccc(-c2n[nH]c3c2C(c2ccccn2)N(C)C3=O)cc1 (stereo not given) | inactive: -11.3%
78 | COc1ccc(-n2nc3c(N4CCC(C(=O)NC5CCCCC5)CC4)nnc(C)c3c2C)cc1 | inactive: -6.58%
79 | Cc1ccccc1Cn1c(SCc2ccc(C(=O)N3CCCCC3)cc2)nc2ccncc21 | inactive: -12.5%
80 | O=S(=O)(NCCc1csc(-c2cccc(F)c2)n1)c1cc(F)ccc1F | inactive: -17%
81 | COc1cc(NC(=O)CCNC(=O)Cn2ccc3ccccc3c2=O)cc(OC)c1OC | inactive: 13.6%
82 | COc1ccc(CCNC(=O)c2cc(Nc3ccccc3)nc3ccccc23)cc1OC | inactive: -20.8%
83 | O=C1CCc2cc(S(=O)(=O)NCc3ccccc3)cc3c2N1CC3 | inactive: -1.15%
84 | CCCCCCCCCCOc1cc2c(=O)c(C(=O)OCC)c[nH]c2cc1OCC | inactive: -6.19% [at 6 µM, percent change from vehicle, -100% = no light]
85 | CCn1c(C(=O)Nc2ccccc2C(=O)OC)cc2sc(Cl)cc21 | inactive: 5.96%
86 | COC(=O)c1c(NC(=O)CCCOc2ccc(C)cc2)sc2c1CCCC2 | inactive: -18.5%
87 | Cc1nc2c(c(C)nn2-c2ccccc2)c(C)c1CCC(=O)Nc1ccccc1 | inactive: -8.46%
88 | O=C(Nc1ccc(S(=O)(=O)N(Cc2ccccc2)c2ccccc2)cc1)c1ccccc1F | inactive: 10.9% [at 11.5 µM, percent change from vehicle, -100% = no light]
89 | Cc1ccc(NC(=O)Cn2c(=O)n(Cc3ccc(F)cc3)c(=O)c3cccnc32)cc1C | inactive: -3.36%
90 | CCCn1ccc2c(OCC(=O)Nc3ccccc3C(=O)OCC)cccc2c1=O | inactive: -36.5%
